The target of assay [1] is T1, c-Met receptor-Fc (R&D Systems) (human, UniProt P08581 25-932).
T1 construct: range 1-932; Bought from R&D Systems; also called c-Met receptor-Fe; not shown: Fc region of a human IgG
Description: ELISA, mutein titrated on c-Met receptor-Fc captured via anti-human IgG-Fc mAb, in absence of HGF.

Assay [2] concerns the target c-Met (construct used in Example 21 / FIG. 15 not stated) (UniProt P08581 25-932, limits assumed). Description: drawn table of Kon, Koff and KD; method not named in Example 21 (column heads as in the SPR Table IV).
Assay [3] has as its target T1, c-Met receptor-Fc (R&D Systems). Description: ELISA, mutein titrated on c-Met receptor-Fc captured via anti-human IgG-Fc mAb, in presence of 300 nM HGF as competitor.
Assay [4] shares this target. Description: SPR as in Example 7 (c-Met receptor-Fc on chip); column head 'Affinity [nM]'.
The target is the same in assay [5]. The experiment in a line: SPR (BIAcore), c-Met receptor-Fc immobilized on CM5 chip, mutein injected; mean of at least 3 measurements.
The target is the same in assay [6]. Description: SPR as in Example 7 (c-Met receptor-Fc on CM5 chip).

Changes are numbered by the printed parent chain. Names and notes keep the numbering of the source.

T1 sequence (P08581 25-932, form in doubt): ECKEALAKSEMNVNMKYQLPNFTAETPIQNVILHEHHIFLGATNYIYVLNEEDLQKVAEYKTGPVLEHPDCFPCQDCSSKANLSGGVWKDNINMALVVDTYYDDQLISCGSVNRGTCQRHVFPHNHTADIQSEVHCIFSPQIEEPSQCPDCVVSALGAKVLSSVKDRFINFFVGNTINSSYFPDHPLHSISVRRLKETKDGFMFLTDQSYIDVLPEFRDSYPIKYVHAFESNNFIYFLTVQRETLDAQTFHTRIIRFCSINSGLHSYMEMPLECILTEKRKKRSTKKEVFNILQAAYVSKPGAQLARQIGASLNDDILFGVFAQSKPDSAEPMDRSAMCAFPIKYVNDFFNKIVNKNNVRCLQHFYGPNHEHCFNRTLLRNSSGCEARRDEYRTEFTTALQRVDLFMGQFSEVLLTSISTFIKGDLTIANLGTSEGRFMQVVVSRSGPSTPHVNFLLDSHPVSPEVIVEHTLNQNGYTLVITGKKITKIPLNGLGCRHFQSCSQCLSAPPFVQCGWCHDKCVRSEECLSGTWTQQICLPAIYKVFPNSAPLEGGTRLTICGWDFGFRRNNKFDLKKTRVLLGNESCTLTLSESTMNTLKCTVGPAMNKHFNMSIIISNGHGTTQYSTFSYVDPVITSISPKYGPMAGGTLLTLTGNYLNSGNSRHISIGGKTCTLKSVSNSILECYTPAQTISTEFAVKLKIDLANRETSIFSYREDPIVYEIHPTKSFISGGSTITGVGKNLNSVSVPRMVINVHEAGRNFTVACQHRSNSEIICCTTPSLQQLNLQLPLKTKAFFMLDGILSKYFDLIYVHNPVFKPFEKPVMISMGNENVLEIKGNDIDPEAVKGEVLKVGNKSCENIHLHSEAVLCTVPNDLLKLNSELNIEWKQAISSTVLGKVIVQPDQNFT

B1: tear lipocalin mutein S261.1-L17 (designed binder)
chain: ASDEEIQDVSGTWYLKAMTVDTQDPLSLYVSVSPITLTTLEGGNLEATVTLNQIGRSQEVLAVLEKTDEPGKYTAYGGAHVAYIHRSHVKDHYIFYSEGDTWGGPVPGVWLVGRDPKNNLEALEDFEKAAGARGLSTESILIPRQSETSSPG
In the case of B1, the equilibrium dissociation constant (Kd) in assay [1] was 1.9 nM; in assay [2] it was 5.8 nM; in assay [3] it was 2.5 nM.

B2: tear lipocalin mutein S244.2-H08 (designed binder)
chain: B1 chain with D24M, S33T, N44S, L61R, H85S
With B2, the equilibrium dissociation constant (Kd) in assay [4] was determined as 8 nM; in assay [5], 9.9 nM.

B3: S275.3-L03 (Dimer) (designed binder)
chain 1: B1 chain with P25C
chain 2: B1 chain with P25C
modifications: Dimer probably joined by a disulfide between the new Cys 29 (piece position 25) of the two chains; the patent does not say so.
notes: The monomer row is written under m38; also called P29C
On to B3, for which, in assay [2], binding was put at a Kd of 0.97 nM, the koff was determined as 1.66e-05 s⁻¹ and the kon was found to be 17100 M⁻¹ s⁻¹.

B4: S244.2-H08_T40C (designed binder)
chain: B1 chain with D24M, S33T, T36C, N44S, L61R, H85S
notes: Cys variant of S244.2-H08 with a free cysteine; also called S244.2-H08 Thr 40 -> Cys
Consider B4, for which the Kd in assay [4] was 40 nM.

B5: S244.2-H08_R90C (designed binder)
chain: B1 chain with D24M, S33T, N44S, L61R, H85S, R86C
notes: Cys variant of S244.2-H08 with a free cysteine; also called S244.2-H08 Arg 90 -> Cys
In turn, B5 yielded a Kd in assay [4] of 35 nM.

B6: S244.2-H08_K121C (designed binder)
chain: B1 chain with D24M, S33T, N44S, L61R, H85S, K117C
notes: Cys variant of S244.2-H08 with a free cysteine; also called S244.2-H08 Lys 121 -> Cys
For the molecule B6, the equilibrium dissociation constant (Kd) in assay [4] is 8 nM.

B7: tear lipocalin mutein S244.4-N05 (designed binder)
chain: B1 chain with T22P, D24M, S33T, I35M, T48E, I54V, L61R, H85T
notes: Purified via Strep-tag
In the case of B7, the Kd in assay [5] was 24 nM.

B8: affinity-maturated tear lipocalin mutein O24 (designed binder)
chain: B1 chain with T22E
In assay [2], B8 showed a dissociation constant Kd of 2.7 nM, a dissociation rate constant (koff) of 5.21e-05 s⁻¹ and a kon of 19700 M⁻¹ s⁻¹.

B9: tear lipocalin mutein S244.5-J05 (designed binder)
chain: B1 chain with D24M, S33T, I35M, T48E, L61R, K72R, H85T
For the molecule B9, the Kd in assay [5] came to 15.5 nM.

B10: affinity-maturated tear lipocalin mutein K22 (designed binder)
chain: B1 chain with T22L
In assay [2], B10 came in with a dissociation constant (Kd) of 3.9 nM, a koff of 6.99e-05 s⁻¹ and an association rate constant (kon) of 17800 M⁻¹ s⁻¹.

B11: affinity-maturated tear lipocalin mutein L03 (designed binder)
chain: B1 chain with P25C
For the molecule B11, in assay [2], the Kd was 1.8 nM, the koff is 3.02e-05 s⁻¹ and the on-rate constant (kon) is 16500 M⁻¹ s⁻¹.

B12: affinity-maturated tear lipocalin mutein O07 (designed binder)
chain: B1 chain with P25L
With B12, in assay [2], binding was put at a Kd of 6.3 nM, the koff came out at 9.1e-05 s⁻¹ and the on-rate (kon) stood at 14500 M⁻¹ s⁻¹.

B13: affinity-maturated tear lipocalin mutein K15 (designed binder)
chain: B1 chain with Q23D
In assay [2], B13 yielded a dissociation constant (Kd) of 2.4 nM, a koff of 4.1e-05 s⁻¹ and an association rate constant (kon) of 17600 M⁻¹ s⁻¹.

B14: tear lipocalin mutein S261.1-J01 (designed binder)
chain: B1 chain with S33T, I35L, T48M, I54V, H85T
In turn, B14 came in with a dissociation constant Kd in assay [6] of 2.3 nM.

B15: affinity-maturated tear lipocalin mutein K06 (designed binder)
chain: B1 chain with P25A
In the case of B15, in assay [2], binding was characterised by a dissociation constant (Kd) of 6 nM, the off-rate (koff) was 8.78e-05 s⁻¹ and the association rate constant (kon) was determined as 14700 M⁻¹ s⁻¹.

B16: S244.2-H08_V93C (designed binder)
chain: B1 chain with D24M, S33T, N44S, L61R, H85S, V89C
notes: The position is counted on mature human tear lipocalin and may be shifted on the entry if its N-terminus is truncated; also called S244.2-H08 Val 93 -> Cys
The molecule B16 displayed a Kd in assay [4] of 21 nM.

B17: tear lipocalin mutein S244.8-I20 (designed binder)
chain: B1 chain with D24M, S33T, T39A, T48E, I54V, L61K, K72R, H85T
notes: Purified via Strep-tag
In the case of B17, the Kd in assay [5] worked out at 23 nM.

B18: S244.2-H08_D95C (designed binder)
chain: B1 chain with D24M, S33T, N44S, L61R, H85S, D91C
notes: Cys variant of S244.2-H08 with a free cysteine; also called S244.2-H08 Asp 95 -> Cys
In the case of B18, in assay [4], the affinity, expressed as Kd, was 11 nM.

B19: affinity-maturated tear lipocalin mutein M02 (designed binder)
chain: B1 chain with T22A
Take B19: in assay [2], the dissociation constant Kd was determined as 3 nM, the koff worked out at 5.7e-05 s⁻¹ and the association rate constant (kon) turned out to be 19400 M⁻¹ s⁻¹.

B20: S244.2-H08_N123C (designed binder)
chain: B1 chain with D24M, S33T, N44S, L61R, H85S, N119C
notes: Cys variant of S244.2-H08 with a free cysteine; also called S244.2-H08 Asn 123 -> Cys
B20 returned a dissociation constant (Kd) in assay [4] of 14 nM.

Source of the values: patent publication US20110098211A1 (Pieris, published 2011).
